Source: article PMC4336329 (PLoS ONE, 2015)
The campaign covered roughly 310,000 compounds. About 2,200 (0.71%) showed an effect of 50% or more. Effects have a minus sign here. This is one part of the list.

What follows are molecules tested against human ether-à-go-go-related gene (hERG) potassium channel (human, UniProt Q12809) (assay: primary screen, population patch clamp on CHO cells stably expressing hERG).
human ether-à-go-go-related gene (hERG) potassium channel, sequence (Q12809 whole entry, looked up): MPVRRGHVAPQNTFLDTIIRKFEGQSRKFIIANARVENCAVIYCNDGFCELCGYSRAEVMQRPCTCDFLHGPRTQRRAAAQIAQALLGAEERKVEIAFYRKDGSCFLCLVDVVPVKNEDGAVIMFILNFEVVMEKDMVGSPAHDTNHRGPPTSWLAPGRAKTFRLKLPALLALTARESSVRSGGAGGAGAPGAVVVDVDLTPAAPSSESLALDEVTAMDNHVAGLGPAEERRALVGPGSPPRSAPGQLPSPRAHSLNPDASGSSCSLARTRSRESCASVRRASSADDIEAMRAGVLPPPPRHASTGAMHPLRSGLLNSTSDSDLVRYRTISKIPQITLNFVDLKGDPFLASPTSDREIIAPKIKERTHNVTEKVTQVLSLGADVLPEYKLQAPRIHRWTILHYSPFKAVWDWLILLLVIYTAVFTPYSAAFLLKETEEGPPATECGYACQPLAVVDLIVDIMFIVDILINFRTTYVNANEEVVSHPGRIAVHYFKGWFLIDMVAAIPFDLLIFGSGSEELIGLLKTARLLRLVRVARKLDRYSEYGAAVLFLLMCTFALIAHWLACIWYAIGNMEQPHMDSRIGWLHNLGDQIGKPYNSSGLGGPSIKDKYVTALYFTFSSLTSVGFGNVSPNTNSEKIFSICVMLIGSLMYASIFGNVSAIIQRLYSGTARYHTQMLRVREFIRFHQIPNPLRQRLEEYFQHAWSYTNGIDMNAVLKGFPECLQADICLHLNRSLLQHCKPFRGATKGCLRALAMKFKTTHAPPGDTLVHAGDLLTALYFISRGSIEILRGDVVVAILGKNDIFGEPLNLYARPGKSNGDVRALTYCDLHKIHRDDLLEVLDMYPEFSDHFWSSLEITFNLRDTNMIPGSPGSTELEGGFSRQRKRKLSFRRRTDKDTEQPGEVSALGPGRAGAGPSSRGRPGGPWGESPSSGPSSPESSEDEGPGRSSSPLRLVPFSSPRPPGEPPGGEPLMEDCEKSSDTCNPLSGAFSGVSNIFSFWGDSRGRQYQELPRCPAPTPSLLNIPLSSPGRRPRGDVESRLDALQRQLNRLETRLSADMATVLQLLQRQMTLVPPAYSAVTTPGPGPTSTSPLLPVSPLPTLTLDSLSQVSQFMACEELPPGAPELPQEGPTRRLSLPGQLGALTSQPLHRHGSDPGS

First: Cc1cccc(OCC(=O)NNC(=O)c2ccc3nc[nH]c3c2)c1
Second: Cc1ccc(S(=O)(=O)NC(=O)Nc2ccccc2)cc1
The “hERG current change (%, negative = inhibition) at 1uM” value of the first is higher: 12.2% for the first, 6.92% for the second.

Compared with `Cc1cc(C)nc(NC(=O)c2ccc(C)c([N+](=O)[O-])c2)n1`, `CCC1CCCCN1C(=O)CSc1nc(C)cc(C)n1` (centres unmarked) is lower in “hERG current change (%, negative = inhibition) at 1uM” value: 5.73% for the first, -6.99% for the second.

Going from `O=C(Nc1nccs1)c1ccc2ccccc2n1` to `O=C(N/N=C/c1coc2ccccc2c1=O)c1ccncc1`, the “hERG current change (%, negative = inhibition) at 1uM” value rises from 13.6% to 19.5%.

Going from `O=C(CCN1C(=O)/C(=C\c2ccccc2)SC1=S)N1CCCCC1` to `O=C(CSc1nc2ccccc2n1S(=O)(=O)c1ccccc1)N1CCCC1`, the “hERG current change (%, negative = inhibition) at 1uM” value falls from 14.1% to 4.02%.

Going from `O=C(CN1CCc2ccccc21)Nc1ccc2c(c1)OCO2` to `O=C(c1ccccc1)N1CCC(O)(c2ccc3c(c2)OCO3)CC1`, the “hERG current change (%, negative = inhibition) at 1uM” value falls from 14.3% to 7.78%.

Compared with `Oc1ccc(C=Nc2cccc3ccccc23)c(O)c1`, `Cc1ccc(NC(=O)c2cc(C)nn2-c2ccccc2)cc1` is lower in “hERG current change (%, negative = inhibition) at 1uM” value: 16.1% for the first, 3.19% for the second.

Compared with `C/C=C/c1ccc(OCCCCOc2c(OC)cccc2OC)c(OC)c1`, `COc1ccc(/C=C2\SC(=S)N(CCCC(=O)Nc3cc(C)on3)C2=O)cc1OC` is higher in “hERG current change (%, negative = inhibition) at 1uM” value: 6.35% for the first, 10.2% for the second.

First: O=C(Nc1cc(Cl)ccc1Cl)C1Cc2ccccc2O/C1=N\O (centres unmarked)
Second: O=C(/C=C/Nc1ccccc1O)c1ccco1
The “hERG current change (%, negative = inhibition) at 1uM” value of the first is higher: 14.2% for the first, 8.53% for the second.

First: C=CCn1c(SCc2nc3sc4c(c3c(=O)[nH]2)CCCC4)nc2ccccc2c1=O
Second: COc1ccc(Cn2nnnc2CN(Cc2cc3cc(C)ccc3[nH]c2=O)C2CCCC2)cc1
The “hERG current change (%, negative = inhibition) at 1uM” value of the first is lower: -0.46% for the first, 17.7% for the second.

First: CC(=O)N1CCN(c2ccc(NC(=O)c3ccc(Br)o3)cc2Cl)CC1
Second: Cc1cccc(N2CCN(C(=O)COc3cc(=O)n(C)c4ccccc34)CC2)c1C
The “hERG current change (%, negative = inhibition) at 1uM” value of the first is higher: -1.25% for the first, -23.4% for the second.

Going from `CC(C)Cn1c(=O)c2ccccc2n2c(CCC(=O)NCc3ccccn3)nnc12` to `O=C(CC1C(=O)NCCN1C/C=C/c1ccccc1)NCCc1cccnc1` (centres unmarked), the “hERG current change (%, negative = inhibition) at 1uM” value falls from 18.6% to 9.43%.

First: Cc1ccc(-c2cc(C(=O)NN3CCOCC3)c3cc(Br)ccc3n2)o1
Second: COc1ccc(S(=O)(=O)N(CC(=O)N2CCOCC2)c2ccc(F)cc2)cc1OC
The “hERG current change (%, negative = inhibition) at 1uM” value of the first is higher: 18% for the first, -3.03% for the second.

Compared with `CS(=O)(=O)c1ccc(C(=O)NCC2(N3CCCCC3)CCCCC2)cc1`, `CC(=O)Nc1ccc(S(=O)(=O)N2CCc3ccccc3C2)cc1` is higher in “hERG current change (%, negative = inhibition) at 1uM” value: 5.88% for the first, 18.6% for the second.

Going from `CCOC(=O)N1CCC(NS(=O)(=O)c2ccc3c(c2)oc(=O)n3C)CC1` to `CCOC(=O)N1CCN(C2CC(=O)N(c3ccc(Oc4ccccc4)cc3)C2=O)CC1` (centres unmarked), the “hERG current change (%, negative = inhibition) at 1uM” value falls from 5.7% to -1.74%.

First: O=C(Nc1ccc2nn(-c3ccccc3)nc2c1)c1ccc2c(c1)OCCO2
Second: O=C(O)c1cccc(NC(=O)c2cccc(NC(=O)C3CCCO3)c2)c1 (centres unmarked)
The “hERG current change (%, negative = inhibition) at 1uM” value of the first is higher: 17.4% for the first, 9.91% for the second.

Going from `CCc1ccc2[nH]c(=O)c(CN(Cc3ccccc3OC)Cc3nnnn3Cc3ccco3)cc2c1` to `CCc1nc(Nc2cccc(OC)c2)c2oc3ccccc3c2n1.Cl`, the “hERG current change (%, negative = inhibition) at 1uM” value rises from -4.81% to 13.3%.

Going from `CCn1ncc(/C=N/O)c1C` to `CCCc1cc(C(=O)OC)c2ccccc2n1`, the “hERG current change (%, negative = inhibition) at 1uM” value falls from 10.5% to 3.72%.

First: COc1ccccc1C1SCCN1S(C)(=O)=O (centres unmarked)
Second: COc1ccccc1CN1CCN(C(=O)COc2ccccc2)CC1
The “hERG current change (%, negative = inhibition) at 1uM” value of the first is lower: -2.83% for the first, 8.51% for the second.

Compared with `CCCCN(C(=O)c1c(C)noc1C)c1c(N)n(CCC)c(=O)[nH]c1=O`, `CCCn1c(SCC(=O)NC2CCCCC2C)n[nH]c1=O` (centres unmarked) is higher in “hERG current change (%, negative = inhibition) at 1uM” value: 5.67% for the first, 12% for the second.

Going from `O=C(O)CCC(=O)NNC(=O)CCC1CCCCC1` to `CCOC(=O)c1ccc(N(CC(=O)NC2CCCCC2)C(=O)CNC(=O)c2ccco2)cc1`, the “hERG current change (%, negative = inhibition) at 1uM” value falls from 12.2% to 0.982%.

First: CC(C)OP(=O)(c1ccc(N(C)C)cc1)C(O)c1ccc(Br)cc1 (centres unmarked)
Second: COc1ccc(NC(=O)COC(=O)Cc2ccc(Br)cc2)cc1
The “hERG current change (%, negative = inhibition) at 1uM” value of the first is higher: 14.6% for the first, 2.78% for the second.

First: Cc1cc(C)c2nc(N3CCC(C(=O)NCC4CCCO4)CC3)sc2c1 (centres unmarked)
Second: S=C(NCC1CCCO1)Nc1ccccc1 (centres unmarked)
The “hERG current change (%, negative = inhibition) at 1uM” value of the first is lower: 10.5% for the first, 16.4% for the second.

Compared with `Cc1ccc(C)c(S(=O)(=O)N2CCCC2CNC(=O)C(=O)NCCc2ccccc2)c1` (centres unmarked), `COc1ccc(NC(=O)CN2C(=O)c3ccccc3Sc3ccc(C(=O)N4CCOCC4)cc32)c(OC)c1` is lower in “hERG current change (%, negative = inhibition) at 1uM” value: 3.99% for the first, 1.43% for the second.

First: CN(C(=O)CSc1nnc(N)s1)C1CCCCC1
Second: CCc1nnc(NC(=O)Cn2ccc(C(F)(F)F)n2)s1
The “hERG current change (%, negative = inhibition) at 1uM” value of the first is higher: 12.7% for the first, 11.2% for the second.

First: COc1ccc(OC)c(NC(=O)CCN2CCN(C)CC2)c1.Cl
Second: CCCCN1C(=O)/C(=C2/Sc3ccc(OC)cc3N2CC)SC1=S
The “hERG current change (%, negative = inhibition) at 1uM” value of the first is lower: -3.28% for the first, 11.2% for the second.

First: N#Cc1c(Nc2cccc(F)c2)sc2c(O)cc(=O)[nH]c12
Second: COCCn1c(C)cc(/C=C2/NC(=O)N(c3cccc(Cl)c3)C2=O)c1C
The “hERG current change (%, negative = inhibition) at 1uM” value of the first is higher: 11.4% for the first, 10.6% for the second.

Going from `CC1CN(C(=S)NC(=O)c2ccccc2)CC(C)O1` (centres unmarked) to `O=C(CSc1nc2ccccc2s1)Nc1cc(C(=O)O)cc(C(=O)O)c1`, the “hERG current change (%, negative = inhibition) at 1uM” value falls from 19% to 14.7%.

Going from `CC(O)CNCc1ccccc1C(F)(F)F.Cl` (centres unmarked) to `O=C(CCl)NCc1cc(-c2ccc(Cl)cc2)no1`, the “hERG current change (%, negative = inhibition) at 1uM” value falls from 7.24% to 4.56%.

First: CC(C)Sc1nc2c(cnn2-c2ccc(Cl)cc2)c(=O)[nH]1
Second: COc1ccc(-c2cnn3c(N)c(S(=O)(=O)C(C)(C)C)cnc23)cc1
The “hERG current change (%, negative = inhibition) at 1uM” value of the first is higher: 9.95% for the first, 8.28% for the second.

With `c1cc2c(cc1CN1CCOCC1)OCO2` the “hERG current change (%, negative = inhibition) at 1uM” value was 17.6%.
